B1: Tetra-13 (bispecific antibody, human IgG1, kappa)
heavy: QVQLVQSGAEVKKPGASVKVSCKASGYTFTRYYMHWVRQAPGQGLEWMGWIYPGEGSTKYAQKFQGRVTMTRDTSISTAYMELSRLRSDDTAVYYCAREYGNYDYWGQGTLVTVSS[sequence of human IgG1 constant region omitted]GGGTEVQLVESGGGLVQPGGSLRLSCAVSGYSITSDYAWNWIRQAPGKCLEWMGYISYSGSTAYNPSLKSRITISRDTSKNTFYLQMNSLRAEDTAVYYCARGPYNYLAYWGQGTLVTVSSGGGGSGGGGSGGGGSDIQLTQSPSSLSASVGDRVTITCRASESVDNYGISFMNWFQQKPGKAPKLLIYAASNQKSGVPSRFSGSGSGTDFTLTISSLQPEDFATYFCQQSKEVPLTFGCGTKVEIL
light: DIVMTQSPDSLAVSLGERATINCKSSQSLLNSGNQKNYLAWYQQKPGQPPKLLIYGASTRESGVPDRFSGSGSGTDFTLTISSLQAEDVAVYYCQNDHSYPYTFGQGTKLEIKRTVAAPSVFIFPPSDEQLKSGTASVVCLLNNFYPREAKVQWKVDNALQSGNSQESVTEQDSKDSTYSLSSTLTLSKADYEKHKVYACEVTHQGLSSPVTKSFNRGEC
B2: Tetra-16 (antibody, human IgG1, kappa)
heavy: QVQLVQSGAEVKKPGASVKVSCKASGYTFTRYYMHWVRQAPGQGLEWMGWIYPGEGSTKYAQKFQGRVTMTRDTSISTAYMELSRLRSDDTAVYYCAREYGNYDYWGQGTLVTVSSASTKGPSVFPLAPSSKSTSGGTAALGCLVKDYFPEPVTVSWNSGALTSGVHTFPAVLQSSGLYSLSSVVTVPSSSLGTQTYICNVNHKPSNTKVDKKV[sequence of human IgG1 Fc with changes omitted]GGGGTQVQLVQSGAEVKKPGASVKVSCKASGYTFTRYYMHWVRQAPGQCLEWMGWIYPGEGSTKYAQKFQGRVTMTRDTSISTAYMELSRLRSDDTAVYYCAREYGNYDYWGQGTLVTVSSGGGGSGGGGSGGGGSDIVMTQSPDSLAVSLGERATINCKSSQSLLNSGNQKNYLAWYQQKPGQPPKLLIYGASTRESGVPDRFSGSGSGTDFTLTISSLQAEDVAVYYCQNDHSYPYTFGCGTKLEIL
light: B1 light
B3: Tetra-17 (antibody, human IgG1, kappa)
heavy: QVQLVQSGAEVKKPGASVKVSCKASGYTFTRYYMHWVRQAPGQGLEWMGWIYPGEGSTKYAQKFQGRVTMTRDTSISTAYMELSRLRSDDTAVYYCAREYGNYDYWGQGTLVTVSSASTKGPSVFPLAPSSKSTSGGTAALGCLVKDYFPEPVTVSWNSGALTSGVHTFPAVLQSSGLYSLSSVVTVPSSSLGTQTYICNVNHKPSNTKVDKKV[sequence of human IgG1 Fc with changes omitted]GGGGTQVQLVQSGAEVKKPGASVKVSCKASGYTFTRYYMHWVRQAPGQGLEWMGWIYPGEGSTKYAQKFQGRVTMTRDTSISTAYMELSRLRSDDTAVYYCAREYGNYDYWGQGTLVTVSSASTKGPSVFPLAPSSKSTSGGTAALGCLVKDYFPEPVTVSWNSGALTSGVHTFPAVLQSSGLYSLSSVVTVPSSSLGTQTYICNVNHKPSNTKVDKKVEPKSC
light: B1 light
B4: 106-222_1949 (bispecific antibody)
heavy: not shown
light: DIQMTQSPSSLSASVGDRVTITCKASQDVSTAVAWYQQKPGKAPKLLIYSASYLYTGVPSRFSGSGSGTDFTFTISSLQPEDIATYYCQQHYSTPRTFGQGTKLEIKRTVAAPSVFIFPPSDEQLKSGTASVVCLLNNFYPREAKVQWKVDNALQSGNSQESVTEQDSKDSTYSLSSTLTLSKADYEKHKVYACEVTHQGLSSPVTKSFNRGEC
B5: 106-222_2H6_8 (bispecific antibody, human IgG1, kappa)
heavy: QVQLVQSGSELKKPGASVKVSCKASGYTFTDYSMHWVRQAPGQGLKWMGWINTETGEPTYADDFKGRFVFSLDTSVSTAYLQISSLKAEDTAVYYCANPYYDYVSYYAMDYWGQGTTVTVSSASTKGPSVFPLAPSSKSTSGGTAALGCLVKDYFPEPVTVSWNSGALTSGVHTFPAVLQSSGLYSLSSVVTVPSSSLGTQTYICNVNHKPSNTKVDKKV[sequence of human IgG1 Fc with changes omitted]GGGGTEVQLVESGGGLVQPGGSLRLSCAVSGYSITSDYAWNWIRQAPGKCLEWMGYISYSGSTAYNPSLKSRITISRDTSKNTFYLQMNSLRAEDTAVYYCARGPYNYLAYWGQGTLVTVSSGGGGSGGGGSGGGGSDIQLTQSPSSLSASVGDRVTITCRASESVDNYGISFMNWFQQKPGKAPKLLIYAASNQKSGVPSRFSGSGSGTDFTLTISSLQPEDFATYFCQQSKEVPLTFGCGTKVEIL
light: B4 light
B6: 106-222_hzG3v9 (bispecific antibody, human IgG1, kappa)
heavy: QVQLVQSGSELKKPGASVKVSCKASGYTFTDYSMHWVRQAPGQGLKWMGWINTETGEPTYADDFKGRFVFSLDTSVSTAYLQISSLKAEDTAVYYCANPYYDYVSYYAMDYWGQGTTVTVSSASTKGPSVFPLAPSSKSTSGGTAALGCLVKDYFPEPVTVSWNSGALTSGVHTFPAVLQSSGLYSLSSVVTVPSSSLGTQTYICNVNHKPSNTKVDKKV[sequence of human IgG1 Fc with changes omitted]GGGGTEVQLLESGGGEVQPGGSLRLSCAASGFTFSDAFMYWVRQAPGKEREWVSSISNRGLKTAYAESVKGRFTISRDNAKNTLYLQMSSLRAEDTAVYYCVEGDWNLGPRGQGTLVTVKP
light: B4 light
B7: 7H11_1949_8 (bispecific antibody)
heavy: not shown
light: B1 light
B8: 7H11_9B12_8 (bispecific antibody, human IgG1, kappa)
heavy: QVQLVQSGAEVKKPGASVKVSCKASGYTFTRYYMHWVRQAPGQGLEWMGWIYPGEGSTKYAQKFQGRVTMTRDTSISTAYMELSRLRSDDTAVYYCAREYGNYDYWGQGTLVTVSSASTKGPSVFPLAPSSKSTSGGTAALGCLVKDYFPEPVTVSWNSGALTSGVHTFPAVLQSSGLYSLSSVVTVPSSSLGTQTYICNVNHKPSNTKVDKKV[sequence of human IgG1 Fc with changes omitted]GGGGTQVQLQESGPGLVKPSQTLSLTCAVYGGSFSSGYWNWIRKHPGKCLEYIGYISYNGITYHNPSLKSRITINRDTSKNQYSLQLNSVTPEDTAVYYCARYKYDYDGGHAMDYWGQGTLVTVSSGGGGSGGGGSGGGGSDIQMTQSPSSLSASVGDRVTITCRASQDISNYLNWYQQKPGKAPKLLIYYTSKLHSGVPSRFSGSGSGTDYTLTISSLQPEDFATYYCQQGSALPWTFGCGTKVEIK
light: B1 light
B9: 7H11_hzG3v9_8 (bispecific antibody, human IgG1, kappa)
heavy: QVQLVQSGAEVKKPGASVKVSCKASGYTFTRYYMHWVRQAPGQGLEWMGWIYPGEGSTKYAQKFQGRVTMTRDTSISTAYMELSRLRSDDTAVYYCAREYGNYDYWGQGTLVTVSSASTKGPSVFPLAPSSKSTSGGTAALGCLVKDYFPEPVTVSWNSGALTSGVHTFPAVLQSSGLYSLSSVVTVPSSSLGTQTYICNVNHKPSNTKVDKKV[sequence of human IgG1 Fc with changes omitted]GGGGTEVQLLESGGGEVQPGGSLRLSCAASGFTFSDAFMYWVRQAPGKEREWVSSISNRGLKTAYAESVKGRFTISRDNAKNTLYLQMSSLRAEDTAVYYCVEGDWNLGPRGQGTLVTVKP
light: B1 light
B10: 9B12_1949 (bispecific antibody)
heavy: not shown
light: DIQMTQSPSSLSASVGDRVTITCRASQDISNYLNWYQQKPGKAPKLLIYYTSKLHSGVPSRFSGSGSGTDYTLTISSLQPEDFATYYCQQGSALPWTFGQGTKVEIKRTVAAPSVFIFPPSDEQLKSGTASVVCLLNNFYPREAKVQWKVDNALQSGNSQESVTEQDSKDSTYSLSSTLTLSKADYEKHKVYACEVTHQGLSSPVTKSFNRGEC
B11: 9B12_hzG3v9 (bispecific antibody, human IgG1, kappa)
heavy: QVQLQESGPGLVKPSQTLSLTCAVYGGSFSSGYWNWIRKHPGKGLEYIGYISYNGITYHNPSLKSRITINRDTSKNQYSLQLNSVTPEDTAVYYCARYKYDYDGGHAMDYWGQGTLVTVSSASTKGPSVFPLAPSSKSTSGGTAALGCLVKDYFPEPVTVSWNSGALTSGVHTFPAVLQSSGLYSLSSVVTVPSSSLGTQTYICNVNHKPSNTKVDKKV[sequence of human IgG1 Fc with changes omitted]GGGGTEVQLLESGGGEVQPGGSLRLSCAASGFTFSDAFMYWVRQAPGKEREWVSSISNRGLKTAYAESVKGRFTISRDNAKNTLYLQMSSLRAEDTAVYYCVEGDWNLGPRGQGTLVTVKP
light: B10 light

Each binder was assayed against T1, human OX40 on cells (human, UniProt P43489 29-277) (assay: cell-based or functional assay).
T1 sequence (looked up): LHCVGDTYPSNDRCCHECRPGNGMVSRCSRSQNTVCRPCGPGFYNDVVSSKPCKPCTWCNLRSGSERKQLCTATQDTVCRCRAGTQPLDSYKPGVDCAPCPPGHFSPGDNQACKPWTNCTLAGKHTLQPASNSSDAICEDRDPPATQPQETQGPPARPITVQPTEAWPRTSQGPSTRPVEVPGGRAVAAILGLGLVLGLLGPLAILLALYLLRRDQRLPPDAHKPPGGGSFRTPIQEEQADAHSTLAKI

Binder	% donor responder (>2), SEB assay, IL-2 release	Mean, normalized IL-2 release, SEB assay
B1	64%	2.6
B2	33%	1.72
B3	8%	1.05
B4	9%	0.84
B5	9%	1.3
B6	0%	0.51
B7	100%	11.9
B8	73%	6.47
B9	100%	30.3
B10	18%	1.6
B11	91%	12.4

From patent US20200347143A1 (GLENMARK PHARMACEUTICALS S A, published 2020)
